IC50 data for 22 compounds are collected here from patent US20250214977A1, “STAT6 INHIBITORS AND USES THEREOF” (Kymera Therapeutics, Inc., priority 2024, published 2025).

This assay concerns the target T1, biotinylated truncated STAT6 (123-632)-avi (Homo sapiens, UniProt P42226).
T1 sequence (P42226 123-632 limits assumed): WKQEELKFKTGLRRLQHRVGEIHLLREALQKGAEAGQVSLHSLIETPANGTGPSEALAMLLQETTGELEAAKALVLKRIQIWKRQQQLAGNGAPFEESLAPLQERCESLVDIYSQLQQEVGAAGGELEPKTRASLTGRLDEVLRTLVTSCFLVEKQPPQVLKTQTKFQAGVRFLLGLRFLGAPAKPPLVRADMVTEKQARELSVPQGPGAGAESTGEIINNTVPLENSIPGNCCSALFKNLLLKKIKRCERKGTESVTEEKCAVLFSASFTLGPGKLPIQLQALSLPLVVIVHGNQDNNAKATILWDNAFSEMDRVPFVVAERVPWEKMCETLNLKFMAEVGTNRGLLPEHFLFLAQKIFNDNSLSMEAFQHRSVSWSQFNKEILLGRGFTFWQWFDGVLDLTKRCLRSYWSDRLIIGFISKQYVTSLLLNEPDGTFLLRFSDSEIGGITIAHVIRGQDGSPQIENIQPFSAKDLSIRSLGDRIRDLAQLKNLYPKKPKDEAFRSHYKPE
The assay is described as follows: Homogenous Time-Resolved Fluorescence (HTRF) binding assay. The settings on record: 0.15 nM biotinylated truncated STAT6 (123-632)-avi, 20 nM fluorescein-labeled probe, 30 minutes at room temperature.

Molecules are shown by their SMILES. A value given as a limit tells only on which side of the number the result lay.

The compound `CNc1ccc(-c2cc(C3=CCCN(C(=O)CCn4ccnn4)C3)c(F)c3[nH]c(C(=O)N4CCN(C)CC4)cc23)c(OC)c1` [Example I-990] had a concentration for half-maximal inhibition (IC50) of less than 100 nM. The result for `COc1ccccc1C(=O)N1CCN(C(=O)c2cc3c(-c4ccccc4OC)cc(C4=CCCN(C(=O)CCn5ccnn5)C4)c(F)c3[nH]2)CC1` [Example I-991] reads less than 100 nM; that for `COc1ccccc1-c1cc(C2=CCCN(C(=O)CCn3ccnn3)C2)c(F)c2[nH]c(C(=O)N3CC(Oc4cccnc4)C3)cc12` [Example I-992], less than 100 nM; that for `COc1ccccc1-c1cc(C2=CCCN(C(=O)CCn3ccnn3)C2)c(F)c2[nH]c(C(=O)Nc3ccnn3C)cc12` [Example I-993], 100 to 1000 nM. Then `COc1ccccc1-c1cc(C2=CCCN(C(=O)CCn3ccnn3)C2)c(F)c2[nH]c(C(=O)N3CCC(=O)N(C)CC3)cc12` [Example I-994], with less than 100 nM. Then `COc1ccccc1-c1cc(C2=CCCN(C(=O)CCn3ccnn3)C2)c(F)c2[nH]c(C(=O)N3CCN(c4ncccn4)C[C@@H]3C)cc12` [Example I-995], with less than 100 nM; and `COc1ccccc1-c1cc(C2=CCCN(C(=O)CCn3ccnn3)C2)c(F)c2[nH]c(C(=O)N3CCNC(=O)[C@@H]3C)cc12` [Example I-996], with less than 100 nM; and `COC(=O)C1CN(C(=O)c2cc3c(-c4ccccc4OC)cc(C4=CCCN(C(=O)CCn5ccnn5)C4)c(F)c3[nH]2)CC1C` (stereo not shown) [Example I-998], with less than 100 nM. For the compound `COc1ccccc1-c1cc(C2=CCCN(C(=O)CCn3ccnn3)C2)c(F)c2[nH]c(C(=O)N3CC(Oc4ccc(F)cc4)C3)cc12` [Example I-999], the IC50 was less than 100 nM. The compound `COc1ccccc1-c1cc(C2=CCCN(C(=O)CCn3ccnn3)C2)c(F)c2[nH]c(C(=O)N3CCC4(CC3)OCCO4)cc12` [Example I-1000] showed an IC50 of less than 100 nM. The result for `C#CCOC1CCN(C(=O)c2cc3c(-c4ccccc4OC)cc(C4=CCCN(C(=O)CCn5ccnn5)C4)c(F)c3[nH]2)CC1` [Example I-1001] reads less than 100 nM. The result for `COc1ccccc1-c1cc(C2=CCCN(C(=O)CCn3ccnn3)C2)c(F)c2[nH]c(C(=O)N3CCC(c4cccnc4C)CC3)cc12` [Example I-1002] reads less than 100 nM. The result for `COc1ccccc1-c1cc(C2=CCCN(C(=O)CCn3ccnn3)C2)c(F)c2[nH]c(C(=O)N3CCN(c4ccc[nH]c4=O)CC3)cc12` [Example I-1003] reads less than 100 nM; that for `COC(=O)c1cc(N2CCN(C(=O)c3cc4c(-c5ccccc5OC)cc(C5=CCCN(C(=O)CCn6ccnn6)C5)c(F)c4[nH]3)CC2)cn1C` [Example I-1004], less than 100 nM; that for `COc1ccccc1-c1cc(C2=CCCN(C(=O)CCn3ccnn3)C2)c(F)c2[nH]c(C(=O)N3CCN(c4cnn(C)c4C#N)CC3)cc12` [Example I-1005], less than 100 nM. `COc1ccccc1-c1cc(C2=CCCN(C(=O)CCn3ccnn3)C2)c(F)c2[nH]c(C(=O)N3CCC(C)(O)C3)cc12` (stereo not shown) [Example I-1006] came in with an IC50 of 100 to 1000 nM. Then `COc1ccccc1-c1cc(C2=CCCN(C(=O)CCn3ccnn3)C2)c(F)c2[nH]c(C(=O)N3CCN(c4ccccn4)C(=O)C3)cc12` [Example I-1008], with less than 100 nM.

`COc1ccccc1-c1cc(C2=CCCN(C(=O)CCn3ccnn3)C2)c(F)c2[nH]c(C(=O)N3CCN(c4ccc(C#N)cc4F)CC3)cc12` [Example I-1009] yielded an IC50 of less than 100 nM. The result for `COc1ccccc1-c1cc(C2=CCCN(C(=O)CCn3ccnn3)C2)c(F)c2[nH]c(C(=O)N3CCc4ncncc4C3)cc12` [Example I-1010] reads less than 100 nM.

Consider `COc1ccccc1-c1cc(C2=CCCN(C(=O)CCn3ccnn3)C2)c(F)c2[nH]c(C(=O)N3CCC4CC43)cc12` (stereo not shown) [Example I-1011], for which the IC50 is less than 100 nM.

`COc1ccccc1-c1cc(C2=CCCN(C(=O)CCn3ccnn3)C2)c(F)c2[nH]c(C(=O)N3CCc4ccc(N)cc4C3)cc12` [Example I-1012] showed an IC50 of less than 100 nM. Then `COc1ccccc1-c1cc(C2=CCCN(C(=O)CCn3ccnn3)C2)c(F)c2[nH]c(C(=O)N3CCN(c4cnn5c4CCC5)CC3)cc12` [Example I-1013], with less than 100 nM.

A word on the IC50: it is the concentration at which inhibition is half-maximal. A high value points to weaker potency.
